Results taken from a compilation of properties of binary mixtures (doi:10.1016/j.molliq.2022.121069).
Some of these densities may be calculated back from excess volumes.

Test: xn = mol fraction of the nth substance listed
Settings: 101.3 kPa

CC[N+](CC)(CC)CC.[Cl-] + CNCCO
mass density [kg/m3]
Settings | 293.15 K | 298.15 K | 303.15 K | 308.15 K | 313.15 K | 318.15 K | 323.15 K | 328.15 K | 333.15 K
x1 = 0.0914 | 953.8 | 950.2 | 946.7 | – | 939.5 | 935.9 | 932.3 | – | 923
x1 = 0.1114 | 956 | 952.4 | – | 945.3 | 941.8 | 938.2 | – | 931.1 | 927.6
x1 = 0.1413 | – | 955.5 | 952 | 948.5 | – | – | – | 934.6 | 931.1

CCCC[N+](CCCC)(CCCC)CCCC.[Cl-] + CNCCO
mass density [kg/m3]
Settings | 293.15 K | 298.15 K | 303.15 K | 308.15 K | 313.15 K | 318.15 K | 323.15 K | 328.15 K | 333.15 K
x1 = 0.091 | – | – | 932.9 | 929.3 | 925.7 | – | 918.6 | 915 | 911.4
x1 = 0.111 | 940.3 | – | 933.3 | 929.9 | 926.4 | 922.9 | 919.4 | – | 912.4
x1 = 0.1441 | 939.6 | 936.2 | – | – | – | 922.5 | 919.1 | 915.6 | 912.2
